From patent US6800434B2, “Peptides as NS3-serine protease inhibitors of hepatitis C virus” (priority 2000, dated 2004)
Starred links: 1 amine or outer side, 2 acyl side, 3 side chain; linkers in the order of their positions; H or OH if unused. Non-standard residues stand in square brackets, D forms with d. Residues, ends and D or L forms follow the SMILES beside them. ξ: configuration not given here. *: point of attachment. X5 = O=C(N[C@@H]1C[C@@H](C(=O)[*:2])N([*:1])C1)OCc1ccccc1; X11 = CC(C)(C)OC(=O)N1CCN([*:1])C(C(=O)[*:2])C1; X1 = CCC[C@H](N[*:1])C(=O)C(=O)[*:2]; X3 = CCCC(N[*:1])C(=O)C(=O)[*:2]; Chg = N[CH](C(=O)O)C1CCCCC1; X8 = CCCC(N*)C(=O)C(=O)OCC; Aze = O=C(O)[C@@H]1CCN1; ξE = NC(CCC(=O)O)C(=O)O; NH(propargyl) = C#CCN*; ξV = CC(C)C(N)C(=O)O; Bn = c1ccc(C*)cc1; GABA = NCCCC(=O)O; OtBu = CC(C)(C)O*; NHAllyl = C=CCN*; βAla = NCCC(=O)O; tBu = CC(C)(C)*; OAll = C=CCO*; X19 = C#CCO*

Target: Recombinant heterodimeric HCV NS3/NS4A protease (strain 1a) (Hepatitis C virus genotype 1a, UniProt P27958)
Test: biochemical
Conditions: Ki* Range

Q: With `C#CCNC(=O)C(=O)[C@H](CCC)NC(=O)[C@@H]1CCCN1C(=O)[C@@H](NC(=O)[C@@H](NC(=O)[C@H](CCC(=O)OC(C)(C)C)NC(=O)[C@H](CCC(=O)OC(C)(C)C)NC(C)=O)C(C)C)C(C)C` [Compound 13] (Ac-E(OtBu)E(OtBu)VVP[X1]-{NH(propargyl)}) as the compound, how does the Ki read?
A: 1 to 10 µM

Q: How did the Ki turn out when `C#CCOC(=O)CNC(=O)C(=O)[C@H](CCC)NC(=O)[C@@H]1CCCN1C(=O)[C@@H](NC(=O)[C@@H](NC(=O)[C@H](CCC(=O)OC(C)(C)C)NC(=O)[C@H](CCC(=O)OC(C)(C)C)NC(C)=O)C(C)C)C(C)C` [Compound 14] (Ac-E(OtBu)E(OtBu)VVP[X1]G-X19) was run?
A: 0.101 to 0.999 µM

Q: With `CCC[C@H](NC(=O)[C@@H]1CCCN1C(=O)[C@@H](NC(=O)[C@@H](NC(=O)[C@H](CCC(=O)O)NC(=O)[C@H](CCC(=O)O)NC(C)=O)C(C)C)C(C)C)C(=O)C(=O)NCCCC(=O)OCC` [Compound 17] (Ac-EEVVP[X1][GABA]-OEt) as the compound, how does the Ki read?
A: 1 to 10 µM

Q: `CCC[C@H](NC(=O)[C@@H]1CCCN1C(=O)[C@@H](NC(=O)[C@@H](NC(=O)[C@H](CCC(=O)OC(C)(C)C)NC(=O)[C@H](CCC(=O)OC(C)(C)C)NC(C)=O)C(C)C)C(C)C)C(=O)C(=O)NCCCC(=O)O` [Compound 19] (Ac-E(OtBu)E(OtBu)VVP[X1][GABA]-OH) was tested. Which Ki did it give?
A: 1 to 10 µM

Q: How did the Ki turn out when `CCCC(NC(=O)[C@H](CCSC)NC(=O)[C@@H](NC(=O)[C@@H](NC(=O)[C@H](CCC(=O)OC(C)(C)C)NC(=O)[C@H](CCC(=O)OC(C)(C)C)NC(C)=O)C(C)C)C(C)C)C(=O)C(=O)OCC` (some centres unmarked) [Compound 20] (Ac-E(OtBu)E(OtBu)VVM-X8) was run?
A: 1 to 10 µM

Q: Which Ki does the source give for `C=CCOC(=O)CNC(=O)C(=O)C(CCC)NC(=O)[C@@H]1C[C@@H](NC(=O)OCc2ccccc2)CN1C(=O)C(NC(=O)C(NC(=O)C(CCC(=O)OC(C)(C)C)NC(=O)C(CCC(=O)OC(C)(C)C)NC(C)=O)C(C)C)C(C)C` (some centres unmarked) [Compound 21] (Ac-[ξE](OtBu)[ξE](OtBu)[ξV][ξV][X5][X3]G-OAll) here?
A: 1 to 10 µM

Q: Which Ki does the source give for `CCC[C@H](NC(=O)[C@@H]1CCCN1C(=O)[C@@H](NC(=O)[C@@H](NC(=O)[C@H](CCC(=O)O)NC(=O)[C@H](CCC(=O)O)NC(C)=O)C(C)C)C(C)C)C(=O)C(=O)N[C@@H](COCc1ccccc1)C(=O)NC` [Compound 23] (Ac-EEVVP[X1]S(Bn)-NHMe) here?
A: 1 to 10 µM

Q: For `CCC[C@H](NC(=O)[C@@H]1CCCN1C(=O)[C@@H](NC(=O)[C@@H](NC(=O)[C@H](CCC(=O)OC(C)(C)C)NC(=O)[C@H](CCC(=O)OC(C)(C)C)NC(C)=O)C(C)C)C(C)C)C(=O)C(=O)N[C@@H](COCc1ccccc1)C(=O)NC` [Compound 24] (Ac-E(OtBu)E(OtBu)VVP[X1]S(Bn)-NHMe), which Ki is on record?
A: 1 to 10 µM

Q: Which Ki does the source give for `CCC[C@H](NC(=O)[C@@H]1CCCN1C(=O)[C@@H](NC(=O)[C@@H](NC(=O)[C@H](CCC(=O)O)NC(=O)[C@H](CCC(=O)O)NC(C)=O)C(C)C)C(C)C)C(=O)C(=O)NCCC(=O)O` [Compound 26] (Ac-EEVVP[X1][βAla]-OH) here?
A: 0.101 to 0.999 µM

Q: Which Ki does the source give for `CCC[C@H](NC(=O)[C@@H]1CCCN1C(=O)[C@@H](NC(=O)[C@@H](NC(=O)[C@H](CCC(=O)O)NC(=O)[C@H](CCC(=O)O)NC(C)=O)C(C)C)C(C)C)C(=O)C(=O)NCCC(=O)OCC` [Compound 27] (Ac-EEVVP[X1][βAla]-OEt) here?
A: 0.001 to 0.1 µM

Q: `CCC[C@H](NC(=O)[C@@H]1CCCN1C(=O)[C@@H](NC(=O)[C@@H](NC(=O)[C@H](CCC(=O)O)NC(=O)[C@H](CCC(=O)O)NC(C)=O)C(C)C)C(C)C)C(=O)C(=O)N[C@@H](CO)C(=O)O` [Compound 28] (Ac-EEVVP[X1]S-OH) was tested. Which Ki did it give?
A: 1 to 10 µM

Q: With `CCC[C@H](NC(=O)[C@@H]1CCCN1C(=O)[C@@H](NC(=O)[C@@H](NC(=O)[C@H](CCC(=O)O)NC(=O)[C@H](CCC(=O)O)NC(C)=O)C(C)C)C(C)C)C(=O)C(=O)N[C@@H](CO)C(=O)OC` [Compound 29] (Ac-EEVVP[X1]S-OMe) as the compound, how does the Ki read?
A: 1 to 10 µM

Q: Which Ki does the source give for `CCC[C@H](NC(=O)[C@@H]1CCCN1C(=O)[C@@H](NC(=O)[C@@H](NC(=O)[C@H](CCC(=O)OC(C)(C)C)NC(=O)[C@H](CCC(=O)OC(C)(C)C)NC(C)=O)C(C)C)C(C)C)C(=O)C(=O)N[C@@H](COC(C)(C)C)C(=O)OC` [Compound 30] (Ac-E(OtBu)E(OtBu)VVP[X1]S(tBu)-OMe) here?
A: 1 to 10 µM

Q: For `CCC[C@H](NC(=O)[C@@H]1CCCN1C(=O)[C@@H](NC(=O)[C@@H](NC(=O)[C@H](CCC(=O)OC(C)(C)C)NC(=O)[C@H](CCC(=O)OC(C)(C)C)NC(C)=O)C(C)C)C(C)C)C(=O)C(=O)N[C@@H](COC(C)(C)C)C(=O)O` [Compound 31] (Ac-E(OtBu)E(OtBu)VVP[X1]S(tBu)-OH), which Ki is on record?
A: 0.101 to 0.999 µM

Q: With `C=CCNC(=O)C(=O)C(CCC)NC(=O)[C@@H]1CCN1C(=O)[C@@H](NC(=O)[C@@H](NC(=O)[C@H](CCC(=O)O)NC(=O)[C@H](CCC(=O)O)NC(C)=O)C(C)C)C(C)C` (some centres unmarked) [Compound 33] (Ac-EEVV[Aze][X3]-NHAllyl) as the compound, how does the Ki read?
A: 0.101 to 0.999 µM

Q: `CCCC(NC(=O)C1CN(C(=O)OC(C)(C)C)CCN1C(=O)[C@@H](NC(=O)[C@@H](NC(=O)[C@H](CCC(=O)OC(C)(C)C)NC(=O)[C@H](CCC(=O)OC(C)(C)C)NC(C)=O)C(C)C)C(C)C)C(=O)C(=O)NCC(=O)O` (some centres unmarked) [Compound 34] (Ac-E(OtBu)E(OtBu)VV[X11][X3]G-OH) was tested. Which Ki did it give?
A: 1 to 10 µM

Q: Which Ki does the source give for `C=CCNC(=O)C(=O)C(CCC)NC(=O)C1CCCN1C(=O)C(NC(=O)C(NC(=O)C(CCC(=O)OC(C)(C)C)NC(=O)C(CCC(=O)OC(C)(C)C)NC(C)=O)C(C)C)C1CCCCC1` (centres unmarked) [Compound 35] (Ac-E(OtBu)E(OtBu)V[Chg]P[X3]-NHAllyl; configuration not given here) here?
A: 1 to 10 µM
